# In PMC4336329 (PLoS ONE, 2015):
# Hit rate of the full screen: of about 310,000 compounds, about 14,000 (4.5%) showed an effect of 50% or more. Effects have a minus sign here. This is one part of the list.
# Target: human ether-à-go-go-related gene (hERG) potassium channel (human, UniProt Q12809)
# Experiment: primary screen, population patch clamp on CHO cells stably expressing hERG
# 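Also: peak tail current of the secondary pulse compared with the same well before compound.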
# Chain of human ether-à-go-go-related gene (hERG) potassium channel (Q12809 whole entry, looked up): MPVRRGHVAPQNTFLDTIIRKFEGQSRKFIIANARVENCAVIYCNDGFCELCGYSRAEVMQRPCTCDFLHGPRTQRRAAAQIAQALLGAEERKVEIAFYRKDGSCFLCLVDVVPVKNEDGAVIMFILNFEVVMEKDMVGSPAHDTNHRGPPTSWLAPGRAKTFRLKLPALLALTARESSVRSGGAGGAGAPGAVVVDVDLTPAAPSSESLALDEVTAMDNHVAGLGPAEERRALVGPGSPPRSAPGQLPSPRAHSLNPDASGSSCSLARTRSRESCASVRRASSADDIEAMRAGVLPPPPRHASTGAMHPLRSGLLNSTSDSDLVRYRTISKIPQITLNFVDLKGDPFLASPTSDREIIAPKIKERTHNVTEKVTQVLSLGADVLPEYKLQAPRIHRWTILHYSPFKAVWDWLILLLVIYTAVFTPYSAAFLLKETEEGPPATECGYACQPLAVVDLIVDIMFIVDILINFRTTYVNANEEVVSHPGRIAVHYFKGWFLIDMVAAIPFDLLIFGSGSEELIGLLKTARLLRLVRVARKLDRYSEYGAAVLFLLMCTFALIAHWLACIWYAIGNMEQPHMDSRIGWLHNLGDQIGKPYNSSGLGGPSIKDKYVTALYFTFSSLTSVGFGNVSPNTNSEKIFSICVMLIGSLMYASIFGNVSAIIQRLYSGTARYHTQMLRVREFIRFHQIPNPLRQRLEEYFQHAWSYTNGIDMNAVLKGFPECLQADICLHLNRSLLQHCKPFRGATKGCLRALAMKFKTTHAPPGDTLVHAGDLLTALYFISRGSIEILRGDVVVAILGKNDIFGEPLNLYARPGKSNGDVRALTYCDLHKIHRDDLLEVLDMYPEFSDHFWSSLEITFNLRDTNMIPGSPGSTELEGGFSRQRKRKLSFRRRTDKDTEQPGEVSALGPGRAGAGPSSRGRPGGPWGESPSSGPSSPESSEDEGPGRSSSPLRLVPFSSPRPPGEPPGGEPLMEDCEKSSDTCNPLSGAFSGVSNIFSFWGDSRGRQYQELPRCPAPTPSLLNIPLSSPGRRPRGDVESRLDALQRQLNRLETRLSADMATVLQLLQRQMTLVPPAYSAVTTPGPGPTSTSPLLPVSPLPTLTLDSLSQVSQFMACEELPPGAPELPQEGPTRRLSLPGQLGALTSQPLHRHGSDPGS
row,Structure (SMILES),"hERG current change (%, negative = inhibition) at 10uM [%]"
1,O=C(NCc1cccnc1)C1CC(c2ccc(F)cc2)=NO1 (centres unmarked),-2.23
2,N#Cc1ccccc1NC(=O)Nc1cccc(Cl)c1,4.4
3,CN(C(=O)CSc1nnc(-c2cccc(F)c2)n1N)C1CCS(=O)(=O)C1 (centres unmarked),4.4
4,COc1ccc(NC(=O)c2cc(S(=O)(=O)N3CCOCC3)cs2)cc1,8.55
5,Clc1ccc(OCCCn2ccnc2)c(Br)c1.O=C(O)C(=O)O,-18.6
6,CCOC(=O)C1C(=O)C=C(c2ccc(C)cc2)CC1c1ccccc1 (centres unmarked),28.2
7,Cn1c(SCc2c(F)cccc2Cl)nnc1-c1cnccn1,-0.137
8,O=C(Nc1nnc(C2CC2)o1)c1ccc(S(=O)(=O)N2CCc3ccccc3C2)cc1,-27
9,Cc1ccc(Nc2ccc(C(=O)NCCc3ccccc3)cn2)cc1,8.75
10,Oc1c(/C=N/c2ncn[nH]2)ccc2ccccc12,-1.58
11,Cc1c(C(=O)C(=O)NCc2ccco2)c2ccccc2n1C,1.7
12,N#Cc1cc(S(=O)(=O)c2ccccc2)c(N)[nH]c1=O,16.1
13,Cc1csc(NC(=O)CSc2nnc(-c3ccoc3C)o2)n1,4.99
14,O=C(Nc1cc(N2CCOCC2)ncn1)NC1(C(F)(F)F)Oc2ccccc2O1,8.86
15,Cc1cc(S(=O)(=O)N2CCOCC2)ccc1OCC(=O)Nc1cccc(F)c1,-18.6
16,COc1cccc(N2CCN(C(=O)c3cccn4c(=O)c5c(C)c(C)sc5nc34)CC2)c1,-0.899
17,CSc1ccc(/C=N/Nc2nc(C)cc(C)n2)cc1,-14.4
18,CCOC(=O)C1=C(CNCc2ccccc2Cl)NC(=O)NC1c1ccc2c(c1)OCO2 (centres unmarked),2.11
19,Cn1c(C(O)c2ccccc2)nc(Cl)c1Cl (centres unmarked),7.1
20,Fc1ccc(OCCn2cnc(Cl)c2Cl)cc1,1.08
21,O=C(CSCc1ccccc1Br)Nc1ccccc1,7.96
22,O=C1CC(Sc2nnc(-c3ccccc3)o2)C(=O)N1c1ccccc1 (centres unmarked),3.12
23,O=C(Nc1ccc(C(F)(F)F)cc1)c1ccc(NC(=O)C2CCCO2)cc1 (centres unmarked),16.6

row,Structure (SMILES),"hERG current change (%, negative = inhibition) at 10uM [%]"
1,Br.N=c1n(CCN2CCOCC2)c2ccccc2n1CC(=O)c1cccc([N+](=O)[O-])c1,-42.2
2,Cc1ccc(NCN2C(=O)C3CC=CCC3C2=O)cc1 (centres unmarked),2.67
3,Cc1oc(-c2ccccc2)nc1CS(=O)CC(=O)O (centres unmarked),10.2
4,CCC(C)N1C(=O)/C(=C\c2cc3c4c(c2)CCCN4CCC3)C(=O)NC1=S (centres unmarked),15.3
5,Cc1ccccc1N(CC(=O)NCCSc1ccccn1)S(=O)(=O)c1ccccc1,-3.92
6,CN(c1ccc(C(=O)NCc2ccccc2)cc1)S(C)(=O)=O,4.08
7,Cc1ccc(-c2nnc(SCC(=O)CC(=O)Nc3ccccc3)n2C)cc1,-13.8
8,CS(=O)(=O)N1CCC(Oc2ccccc2C(=O)NC2CCCCCC2)CC1,0.371
9,O=C(/C=C/c1cc([N+](=O)[O-])ccc1OC(F)F)NCc1ccc(Cl)cc1,4.74
10,O=C(CCN1C(=O)/C(=C/c2ccccc2)SC1=S)NCCc1ccc(O)cc1,8.84
11,CCOc1ccc(S(=O)(=O)NCCSc2ccccc2)cc1,-33.4
12,COc1cc(C2NCC(c3ccc(Cl)cc3Cl)c3c2[nH]c2ccccc32)cc(OC)c1OC.Cl (centres unmarked),7.58
13,CCCC(=O)Nc1ccc2c(c1)nc(CCN1CCN(c3ccccn3)CC1)n2C,-25.5
14,O=C(COc1ccccc1)c1cn(CC(=O)N2CCOCC2)c2ccccc12,-2.63
15,COCCNC(=O)c1cc2c(=O)n3cccc(C)c3nc2n(Cc2ccncc2)c1=N,-70
16,O=C(CSC(=S)N1CCCC1)NCCc1ccccc1,-14
17,CCC(CO)Nc1ccc(-c2n[nH]c(=O)c3ccccc23)cc1[N+](=O)[O-] (centres unmarked),7.43
18,NC(=O)c1c[nH]c2ccccc12,8.51
19,O=C(O)C1CC=CCC1C(=O)Nc1ccccc1C(=O)N1CCN(c2ccccc2)CC1 (centres unmarked),0.797
20,CN(C)C(=O)CS(=O)(=O)c1ccc(Cl)cc1,1.28
21,CCOC(=O)c1ccc2[nH]c3c(c2c1)CCCC3C(=O)OCC (centres unmarked),-16.3
22,Nc1sc2c(c1C(=O)NC1CCS(=O)(=O)C1)CCC2 (centres unmarked),10.9
23,O=c1[nH]cnc2c1nc(SCc1ccccc1)n2C1OC(CO)C(O)C1O (centres unmarked),-2.32

row,Structure (SMILES),"hERG current change (%, negative = inhibition) at 10uM [%]"
1,CC(C)COc1ccc(C(=O)Nc2ccc(NC(=O)c3ccco3)c(Cl)c2)cc1,11.6
2,CCN(C(=O)c1cc2c(s1)-c1ccccc1OC2)c1cc(OC)ccc1OC,1.43
3,CC1SC(=NC(=O)c2ccncc2)NC1=O (centres unmarked),23.6
4,O=C(Nc1ccc(C(=O)O)cc1)Nc1ccc(F)cc1F,-7.2
5,CCOC(=O)Cn1c(=NC(=O)C2COc3ccccc3O2)sc2cc(S(N)(=O)=O)ccc21 (centres unmarked),8.95
6,COc1ccc(-c2ccc3sc4ccccc4c(=O)c3c2)cn1,-17.2
7,O/N=C/c1cn(-c2ccccc2)nn1,2.04
8,Cc1ccc(C(=O)Oc2ccc(/C=C3\C(=N)N4N=C(N5CCOCC5)SC4=NC3=O)cc2)cc1,27.9
9,CCCCc1nnc(NC(=O)CC(=O)Nc2ccccc2C(=O)O)s1,3.71
10,Cc1cc(C)c(C#N)c(SCC(=O)Nc2ccc(S(=O)(=O)Nc3onc(C)c3C)cc2)n1,4.6
11,C=C1CCN([C@@H](C)C(=O)OCc2cccc(C)c2)S(=O)(=O)c2ccccc21,0.747
12,CCOc1c(P(=S)(N(C)C)N(C)C)c(C)nn1-c1ccccc1,2.73
13,CCC(NS(=O)(=O)c1c(C)[nH]c(=O)[nH]c1=O)C12CC3CC(CC(C3)C1)C2 (centres unmarked),-5.89
14,CCCN(Cc1ccccc1)C(=S)Nc1ccc(F)cc1,13.2
15,CCOC(=O)c1sc(Nc2nc3c(OC)cccc3s2)nc1C,2.25
16,Cc1cc(C)c2nc(SCC(=O)Nc3cc(C)on3)c(C)cc2c1,20.5
17,N#CC(C(=O)c1ccc(S(=O)(=O)N2CCCCCC2)cc1)c1nc2ccccc2[nH]1 (centres unmarked),2.37
18,COc1ccc(N2C(=O)CSC23C(=O)N2CCCc4cccc3c42)cc1 (centres unmarked),0.569
19,Cc1cc(C)cc(NS(=O)(=O)c2ccc3[nH]cc(C(=O)N4CCc5ccccc54)c(=O)c3c2)c1,1.09
20,C=CCn1c(SCc2ccc(Cl)cc2)nc2c1c(=O)[nH]c(=O)n2C,-2.54
21,O=C(Nc1ccc2c(c1)OCO2)c1cnccn1,4.36
22,CC(C)(C)OC(=O)[C@H](Cc1ccccc1)NC(=O)c1nc[nH]c1C(=O)NCc1ccccc1,1.7
23,CCOC(=O)c1cnn(CCOC(=O)c2ccccc2)c1NC(=O)c1ccccc1,-5.33

row,Structure (SMILES),"hERG current change (%, negative = inhibition) at 10uM [%]"
1,O=C(NCCCNC(=O)c1ccco1)c1cccc(F)c1,7.01
2,COCC(C)n1c(SCc2nc3ccccc3c(=O)[nH]2)nc2ccccc2c1=O (centres unmarked),-13.4
3,COc1ccc(CNC(=O)c2c(C)cc(=O)oc2C)cc1OC,6.84
4,Cc1ccc(F)c(C2=CC(=O)C[C@H](c3ccc(F)cc3)C2)c1,-10.8
5,C=CCn1c(C(O)c2ccccc2)nc2ccccc21 (centres unmarked),14.2
6,O=C(NC1CC1)C1CCN(C(=O)c2ccccc2Cl)CC1,21.3
7,CCn1c(Cn2nnc(-c3ccccc3)n2)nnc1SCC(=O)Nc1cccc(C(C)=O)c1,-33.8
8,CCN(Cc1ccccc1)c1ccc(/C=C(\C#N)c2ccccn2)cc1,3.87
9,O=C(Nc1ccc(N2CCN(C(=O)c3ccccc3)CC2)cc1)c1ccc(Br)o1,-75.9
10,C/C(=C\c1ccccc1)C(=O)Nc1cc(C)on1,-1.27
11,CCC1CCCCN1CCCNC(=O)c1cc2c(=O)oc3ccc(C)cc3c2s1 (centres unmarked),-69.5
12,CC1(C(=O)N2CCN(C(=O)c3ccco3)CC2)CC1(Br)Br (centres unmarked),-3.81
13,c1ccc(-c2oc3ncnc(NCCCN4CCOCC4)c3c2-c2ccccc2)cc1,-87.1
14,C/C(=N\O)C(C)/[N+]([O-])=C/c1nc(C)c(C)n1O (centres unmarked),20.2
15,CC(C)(C)Cc1nnc(NC(=O)Cc2cccs2)s1,25.7
16,COc1ccc(-c2nn(CCC#N)cc2C(=O)Nc2ccccc2Br)cc1,20.4
17,O=C(Oc1ccc(N(C(=O)c2ccncc2)S(=O)(=O)c2ccc(Cl)cc2)cc1)c1ccncc1,-11.5
18,O=C1CC(c2ccccc2)CN1C(=O)c1ccccc1 (centres unmarked),17.7
19,c1ccc(N2CC3CCc4ccccc4C3=N2)cc1 (centres unmarked),9.87
20,O=C(CCC(=O)N(c1ccc(F)cc1)C(C(=O)NC1CCCC1)c1ccncc1)Nc1cccnc1 (centres unmarked),-9.14
